# The supplement of paper PMC8728848
# The other results are listed elsewhere or left out.
# B1: LecB PA7 (Pseudomonas aeruginosa) (protein)
# chain: MATQGVFTLPANTRFGVTAFANSSATQTVKVLVNNETAATFTGQSTNNAVIGSQVLNSGGGGKVQIQVSVNGRSSDLVSAQVILANELNVALVGSEDSTDNDYNDAVVVINWPLG
# Key:
# Experiment in all cases: glycan array binding signal (z-score within array); higher = stronger binding
# Conditions in all cases: glycan notation: IUPAC condensed, linker removed
# [1] = biological target: Neu5Ac(a2-3)Gal(b1-3)GalNAc
# Method in brief: (§1)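 Glycan array data came from 3228 arrays in the Consortium for Functional Glycomics database, and only arrays with an available protein sequence were kept. Glycan names were put into IUPAC-condensed notation, and columns mapping to the same glycan were averaged. The binding signal is a within-array Z-score, averaged across arrays of one protein sequence run at different concentrations or buffers and across linkers. A negative Z-score can be read as non-binding.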
# [2] = biological target: Neu5Ac(a2-3)Gal(b1-3)GalNAc(b1-3)Gal(a1-4)Gal(b1-4)Glc
# Method in brief: as §1
# [3] = biological target: Neu5Ac(a2-3)Gal(b1-3)GalNAc(b1-4)Gal(b1-4)Glc
# Method in brief: as §1
# [4] = biological target: Neu5Ac(a2-3)Gal(b1-3)GalNAc(b1-4)[Neu5Ac(a2-3)]Gal(b1-4)Glc
# Method in brief: as §1
# [5] = biological target: Neu5Ac(a2-3)Gal(b1-3)GalNAc(b1-4)[Neu5Ac(a2-8)Neu5Ac(a2-3)]Gal(b1-4)Glc
# Method in brief: as §1
# [6] = biological target: Neu5Ac(a2-3)Gal(b1-3)GalNAc6S
# Method in brief: as §1
# [7] = biological target: Neu5Ac(a2-3)Gal(b1-3)GlcNAc
# Method in brief: as §1
# [8] = biological target: Neu5Ac(a2-3)Gal(b1-3)GlcNAc(b1-2)Man
# Method in brief: as §1
# [9] = biological target: Neu5Ac(a2-3)Gal(b1-3)GlcNAc(b1-2)Man(a1-3)[GlcNAc(b1-4)][Neu5Ac(a2-3)Gal(b1-3)GlcNAc(b1-2)Man(a1-6)]Man(b1-4)GlcNAc(b1-4)GlcNAc
# Method in brief: as §1
# [10] = biological target: Neu5Ac(a2-3)Gal(b1-3)GlcNAc(b1-2)Man(a1-3)[Neu5Ac(a2-3)Gal(b1-3)GlcNAc(b1-2)Man(a1-6)]Man(b1-4)GlcNAc(b1-4)GlcNAc
# Method in brief: as §1
# [11] = biological target: Neu5Ac(a2-3)Gal(b1-3)GlcNAc(b1-2)[Neu5Ac(a2-3)Gal(b1-3)GlcNAc(b1-4)]Man(a1-6)[Neu5Ac(a2-3)Gal(b1-3)GlcNAc(b1-2)Man(a1-3)]Man(b1-4)GlcNAc(b1-4)GlcNAc
# Method in brief: as §1
# [12] = biological target: Neu5Ac(a2-3)Gal(b1-3)GlcNAc(b1-3)Gal(b1-3)GlcNAc
# Method in brief: as §1
# [13] = biological target: Neu5Ac(a2-3)Gal(b1-3)GlcNAc(b1-3)Gal(b1-4)GlcNAc
# Method in brief: as §1
# [14] = biological target: Neu5Ac(a2-3)Gal(b1-3)GlcNAc(b1-3)GalNAc
# Method in brief: as §1
# [15] = biological target: Neu5Ac(a2-3)Gal(b1-3)GlcNAc(b1-6)GalNAc
# Method in brief: as §1
# [16] = biological target: Neu5Ac(a2-3)Gal(b1-3)GlcNAc6S
# Method in brief: as §1
# [17] = biological target: Neu5Ac(a2-3)Gal(b1-3)[Fuc(a1-4)]GlcNAc
# Method in brief: as §1
# [18] = biological target: Neu5Ac(a2-3)Gal(b1-3)[Fuc(a1-4)]GlcNAc(b1-3)Gal(b1-3)[Fuc(a1-4)]GlcNAc
# Method in brief: as §1
# [19] = biological target: Neu5Ac(a2-3)Gal(b1-3)[Fuc(a1-4)]GlcNAc(b1-3)Gal(b1-4)[Fuc(a1-3)]GlcNAc
# Method in brief: as §1
# [20] = biological target: Neu5Ac(a2-3)Gal(b1-3)[GlcNAc(b1-6)]GalNAc
# Method in brief: as §1
# [21] = biological target: Neu5Ac(a2-3)Gal(b1-3)[Neu5Ac(a2-6)]GalNAc
# Method in brief: as §1
# [22] = biological target: Neu5Ac(a2-3)Gal(b1-3)[Neu5Ac(a2-6)]GlcNAc(b1-3)[Fuc(a1-3)[Gal(b1-4)]GlcNAc(b1-6)]Gal(b1-4)Glc
# Method in brief: as §1
# [23] = biological target: Neu5Ac(a2-3)Gal(b1-3)]Neu5Ac(a2-3)Gal(b1-4)]GlcNAc
# Method in brief: as §1
# [24] = biological target: Neu5Ac(a2-3)Gal(b1-4)Glc
# Method in brief: as §1
# [25] = biological target: Neu5Ac(a2-3)Gal(b1-4)GlcNAc
# Method in brief: as §1
# [26] = biological target: Neu5Ac(a2-3)Gal(b1-4)GlcNAc(b1-2)Man
# Method in brief: as §1
# [27] = biological target: Neu5Ac(a2-3)Gal(b1-4)GlcNAc(b1-2)Man(a1-3)[GlcNAc(b1-4)][Neu5Ac(a2-3)Gal(b1-4)GlcNAc(b1-2)Man(a1-6)]Man(b1-4)GlcNAc(b1-4)GlcNAc
# Method in brief: as §1
# [28] = biological target: Neu5Ac(a2-3)Gal(b1-4)GlcNAc(b1-2)Man(a1-3)[Neu5Ac(a2-3)Gal(b1-4)GlcNAc(b1-2)Man(a1-6)]Man(b1-4)GlcNAc(b1-4)GlcNAc
# Method in brief: as §1
# [29] = biological target: Neu5Ac(a2-3)Gal(b1-4)GlcNAc(b1-2)Man(a1-3)[Neu5Ac(a2-3)Gal(b1-4)GlcNAc(b1-2)Man(a1-6)]Man(b1-4)GlcNAc(b1-4)[Fuc(a1-6)]GlcNAc
# Method in brief: as §1
# [30] = biological target: Neu5Ac(a2-3)Gal(b1-4)GlcNAc(b1-2)Man(a1-3)[Neu5Ac(a2-6)Gal(b1-4)GlcNAc(b1-2)Man(a1-6)]Man(b1-4)GlcNAc(b1-4)GlcNAc
# Method in brief: as §1
# [31] = biological target: Neu5Ac(a2-3)Gal(b1-4)GlcNAc(b1-2)[Neu5Ac(a2-3)Gal(b1-4)GlcNAc(b1-4)]Man(a1-3)[GlcNAc(b1-4)][Neu5Ac(a2-3)Gal(b1-4)GlcNAc(b1-2)[Neu5Ac(a2-3)Gal(b1-4)GlcNAc(b1-6)]Man(a1-6)]Man(b1-4)GlcNAc(b1-4)GlcNAc
# Method in brief: as §1
# [32] = biological target: Neu5Ac(a2-3)Gal(b1-4)GlcNAc(b1-2)[Neu5Ac(a2-3)Gal(b1-4)GlcNAc(b1-4)]Man(a1-3)[GlcNAc(b1-4)][Neu5Ac(a2-3)Gal(b1-4)GlcNAc(b1-4)Man(a1-6)]Man(b1-4)GlcNAc(b1-4)GlcNAc
# Method in brief: as §1
# [33] = biological target: Neu5Ac(a2-3)Gal(b1-4)GlcNAc(b1-2)[Neu5Ac(a2-3)Gal(b1-4)GlcNAc(b1-6)]Man(a1-6)[Neu5Ac(a2-3)Gal(b1-4)GlcNAc(b1-2)Man(a1-3)][GlcNAc(b1-4)]Man(b1-4)GlcNAc(b1-4)GlcNAc
# Method in brief: as §1
# [34] = biological target: Neu5Ac(a2-3)Gal(b1-4)GlcNAc(b1-3)Gal
# Method in brief: as §1
# [35] = biological target: Neu5Ac(a2-3)Gal(b1-4)GlcNAc(b1-3)Gal(b1-3)GlcNAc
# Method in brief: as §1
# [36] = biological target: Neu5Ac(a2-3)Gal(b1-4)GlcNAc(b1-3)Gal(b1-4)GlcNAc
# Method in brief: as §1
# [37] = biological target: Neu5Ac(a2-3)Gal(b1-4)GlcNAc(b1-3)Gal(b1-4)GlcNAc(b1-2)Man(a1-3)[Neu5Ac(a2-3)Gal(b1-4)GlcNAc(b1-3)Gal(b1-4)GlcNAc(b1-2)Man(a1-6)]Man(b1-4)GlcNAc(b1-4)GlcNAc
# Method in brief: as §1
# [38] = biological target: Neu5Ac(a2-3)Gal(b1-4)GlcNAc(b1-3)Gal(b1-4)GlcNAc(b1-3)Gal(b1-4)GlcNAc
# Method in brief: as §1
# [39] = biological target: Neu5Ac(a2-3)Gal(b1-4)GlcNAc(b1-3)Gal(b1-4)GlcNAc(b1-3)Gal(b1-4)GlcNAc(b1-2)Man(a1-3)[Neu5Ac(a2-3)Gal(b1-4)GlcNAc(b1-3)Gal(b1-4)GlcNAc(b1-3)Gal(b1-4)GlcNAc(b1-2)Man(a1-6)]GalNAc
# Method in brief: as §1
# [40] = biological target: Neu5Ac(a2-3)Gal(b1-4)GlcNAc(b1-3)Gal(b1-4)GlcNAc(b1-3)GalNAc
# Method in brief: as §1
# [41] = biological target: Neu5Ac(a2-3)Gal(b1-4)GlcNAc(b1-3)Gal(b1-4)GlcNAc(b1-3)[Neu5Ac(a2-3)Gal(b1-4)GlcNAc(b1-3)Gal(b1-4)GlcNAc(b1-6)]GalNAc
# Method in brief: as §1
# [42] = biological target: Neu5Ac(a2-3)Gal(b1-4)GlcNAc(b1-3)Gal(b1-4)GlcNAc(b1-6)[Gal(b1-3)]GalNAc
# Method in brief: as §1
# [43] = biological target: Neu5Ac(a2-3)Gal(b1-4)GlcNAc(b1-3)Gal(b1-4)[Fuc(a1-3)]GlcNAc
# Method in brief: as §1
# [44] = biological target: Neu5Ac(a2-3)Gal(b1-4)GlcNAc(b1-3)GalNAc
# Method in brief: as §1
# [45] = biological target: Neu5Ac(a2-3)Gal(b1-4)GlcNAc(b1-3)[Neu5Ac(a2-3)Gal(b1-4)GlcNAc(b1-6)]GalNAc
# Method in brief: as §1
binder,measurement,setting,value
B1,glycan array binding signal (z-score),[1],-0.379
same,glycan array binding signal (z-score),[2],-0.501
same,glycan array binding signal (z-score),[3],-0.42
same,glycan array binding signal (z-score),[4],-0.488
same,glycan array binding signal (z-score),[5],-0.491
same,glycan array binding signal (z-score),[6],-0.517
same,glycan array binding signal (z-score),[7],-0.489
same,glycan array binding signal (z-score),[8],-0.501
same,glycan array binding signal (z-score),[9],-0.348
same,glycan array binding signal (z-score),[10],-0.472
same,glycan array binding signal (z-score),[11],-0.19
same,glycan array binding signal (z-score),[12],-0.512
same,glycan array binding signal (z-score),[13],-0.506
same,glycan array binding signal (z-score),[14],-0.508
same,glycan array binding signal (z-score),[15],-0.507
same,glycan array binding signal (z-score),[16],-0.461
same,glycan array binding signal (z-score),[17],3.31
same,glycan array binding signal (z-score),[18],3.06
same,glycan array binding signal (z-score),[19],2.81
same,glycan array binding signal (z-score),[20],-0.507
same,glycan array binding signal (z-score),[21],-0.438
same,glycan array binding signal (z-score),[22],-0.227
same,glycan array binding signal (z-score),[23],-0.509
same,glycan array binding signal (z-score),[24],-0.481
same,glycan array binding signal (z-score),[25],-0.513
same,glycan array binding signal (z-score),[26],-0.485
same,glycan array binding signal (z-score),[27],-0.507
same,glycan array binding signal (z-score),[28],-0.505
same,glycan array binding signal (z-score),[29],0.098
same,glycan array binding signal (z-score),[30],-0.234
same,glycan array binding signal (z-score),[31],-0.516
same,glycan array binding signal (z-score),[32],-0.511
same,glycan array binding signal (z-score),[33],-0.504
same,glycan array binding signal (z-score),[34],-0.035
same,glycan array binding signal (z-score),[35],-0.505
same,glycan array binding signal (z-score),[36],-0.51
same,glycan array binding signal (z-score),[37],-0.454
same,glycan array binding signal (z-score),[38],-0.513
same,glycan array binding signal (z-score),[39],-0.236
same,glycan array binding signal (z-score),[40],-0.512
same,glycan array binding signal (z-score),[41],-0.499
same,glycan array binding signal (z-score),[42],-0.51
same,glycan array binding signal (z-score),[43],-0.507
same,glycan array binding signal (z-score),[44],-0.466
same,glycan array binding signal (z-score),[45],-0.516
